Source: PubChem BioAssay AID1745853 (National Center for Advancing Translational Sciences (NCATS), 2022)
Where “and” joins values, the source holds several entries; their conditions need not be identical. Equal values may be shown once. Some of the results follow. The main result of the screen is listed elsewhere. These columns were measured beside it and carry no call.

Legend:
Assay in all cases: Primary Screen for Target Class Profiling of Small Molecule Inhibitors of Methyltransferases
[1] = molecular target: Glycine N-methyltransferase (Homo sapiens) (UniProt Q14749); settings: purified enzyme, MTase-Glo SAH luminescence; measured here: GNMT inhibition; at 40 µM; stronger effect = lower value
Method in brief: (§1)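 Each enzyme was reacted with SAM and its substrate, with compounds tested once at 40 uM; SAH formed was read by MTase-Glo luminescence.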

[2] = molecular target: Guanidinoacetate N-methyltransferase (Homo sapiens) (UniProt Q14353); settings: purified enzyme, MTase-Glo SAH luminescence; measured here: GAMT inhibition; at 40 µM; stronger effect = lower value
Method in brief: as §1

[3] = molecular target: Histamine N-methyltransferase (Homo sapiens) (UniProt P50135); settings: purified enzyme, MTase-Glo SAH luminescence; measured here: HNMT inhibition; at 40 µM; stronger effect = lower value
Method in brief: as §1

[4] = molecular target: Nicotinamide N-methyltransferase (Homo sapiens) (UniProt P40261); settings: purified enzyme, MTase-Glo SAH luminescence; measured here: NNMT inhibition; at 40 µM; stronger effect = lower value
Method in brief: as §1

[5] = molecular target: Phenylethanolamine N-methyltransferase (Homo sapiens) (UniProt P11086); settings: purified enzyme, MTase-Glo SAH luminescence; measured here: PNMT inhibition; at 40 µM; stronger effect = lower value
Method in brief: as §1
% is set by controls: 0 for no effect and ±100 for the full control effect.

SMILES | activity change, negative = inhibition [1] | activity change, negative = inhibition [2] | activity change, negative = inhibition [3] | activity change, negative = inhibition [4] | activity change, negative = inhibition [5]
CC(C)CCNC(=O)C1(C)Cn2nc(C(=O)N3CCN(C4CCCCC4)CC3)cc2C(=O)N1C (stereo not given) | 10.4% | 0% | 6.74% | 10.1% | 5.28%
O=C(Nc1ncc(SCCN2CCCC2)s1)C1(c2ccc(S(=O)(=O)C3CC3)cc2)CC1C1CCCCC1 (stereo not given) | 3.71% | -6.67% | -13.2% | -35.3% | -11.1%
Cc1ccc(N2C(=O)c3ccccc3CC2(C)C(=O)NCc2ccccc2C)cc1 (stereo not given) | 3.07% | 1.1% | 5.18% | 1.37% | 4.39%
CC1(C(=O)NCc2ccccc2)Cn2c(ccc2-c2ccco2)C(=O)N1Cc1ccccc1 (stereo not given) | -1.28% | 3.46% | 2.69% | -6.7% | -3.66%
CCn1ccnc1CN(C)Cc1cccc(OCC(O)CN(C)C2CCCCC2)c1 (stereo not given) | -2.5% | -3.67% | -19.7% | -11.4% | -7.08%
CC(CN(C)C)CN1c2ccccc2CCc2ccccc21 (stereo not given) | -1.59% | 10.4% | -5.03% | -9.93% | 4.86%
Cc1ccc(NC(=O)Cn2c(N3CCN(c4ccccc4)CC3)nc(C)cc2=O)cc1 | -4.57% | -3.88% | -2.25% | -3.19% | -8.01%
Cn1c(N2CCCCS2(=O)=O)nc(C(=O)NCc2ccc(F)cc2)c(O)c1=O | -3.14% | -10.2% | -1.79% | -22.1% | -6.27%
COc1ccc(NC(=O)Cn2c(=O)oc3cc(S(=O)(=O)NC4CCCC4)ccc32)cc1OC | -4.65% | -0.929% | -2.7% | -8.48% | -27%
CCC(C)NC(=O)c1ccc2c(=O)n(CCC(C)C)c3nn(CC(=O)Nc4ccccc4C)c(=O)n3c2c1 (stereo not given) | 0.891% | 2.06% | -0.577% | 0.072% | -0.728%
O=c1c2ccccc2n2c(SCc3ccccc3F)nnc2n1Cc1ccc(F)cc1 | -3.6% | 0.554% | -2.15% | -12.2% | -2.07%
CCn1c(C(=O)OC)c(NC(C)=O)c2cc(NC(C)Cc3ccccc3OC)cnc21 (stereo not given) | -6.61% | -2.49% | -8.67% | 2.02% | -11.1%
Cn1nccc1C(=O)N1CC(C(=O)Nc2ccccn2)C2(CCOCC2)C1 (stereo not given) | -2.35% | -6.41% | -1.57% | -5.96% | -4.62%
O=C(NCc1cccs1)c1c[nH]c2ncccc12 | -3.8% | 0.39% | 1.44% | -7.19% | -7.54%
Cc1nn2c(c1-c1ccccc1OCc1ccccc1)N(Cc1nccn1C)CCC2 | -4.39% | -4.93% | -3.92% | -25.8% | -4.89%
Cc1ccc(C)c(CNC(=O)c2cc3n(n2)CC(C)(C(=O)NCc2ccc(F)cc2)N(C)C3=O)c1 (stereo not given) | -4.85% | 1.7% | -1% | -4.75% | -5.72%
C/C(=C\CO)CC/C=C(\C)C(=O)O[C@@H]1O[C@H](CO)[C@@H](O)[C@H](O)[C@H]1O | 2.75% | -0.656% | 7.38% | -14.2% | 6.77%
CCCn1c(=O)c2ccc(C(=O)NC(C)C)cc2n2c(SCC(=O)Nc3cc(C)cc(C)c3)nnc12 | 2.23% | 0% | 7.93% | -7.66% | 5.47%
CCCn1c(=O)c2ccc(C(=O)NC(C)CC)cc2n2c(SCC(=O)Nc3ccc(C)cc3C)nnc12 (stereo not given) | -1.15% | 0.456% | 0.588% | -1.82% | 4.44%

SMILES | activity change, negative = inhibition [1] | activity change, negative = inhibition [2] | activity change, negative = inhibition [3] | activity change, negative = inhibition [4] | activity change, negative = inhibition [5]
COC(=O)[C@H]1[C@H]2C[C@H]3c4[nH]c5ccccc5c4CCN3C[C@H]2CC[C@@H]1O | -25.5% | 0.043% | -8.12% | -10.4% | -48.3%
Cc1cccc(NC(=O)Cn2nc3n(CCC(C)C)c(=O)c4ccc(C(=O)NC(C)C)cc4n3c2=O)c1 | 8.23% | 0% | 4.01% | 7.27% | 5.54%
COc1ccc(CC2CCOC3(CCN(S(=O)(=O)c4c(C)nn(C)c4C)CC3)C2)cc1 (stereo not given) | -6.64% | -4.82% | -1.38% | -10.4% | -2.18%
CC(=O)Nc1ccc(NS(=O)(=O)c2ccc3[nH]c(=O)[nH]c3c2)cc1 | -4.88% | 0.66% | 9.93% | 14% | -5.79%
COc1cc(-c2nc(N[C@H](CO)Cc3ccccc3)ccc2C(=O)NCCOc2ccccc2)cc(OC)c1OC | -0.484% | 4.74% | 11.4% | -19.1% | 2.8%
C=C(CCC1C(C)(O)CCC2C(C)(C)C(O)CCC12C)C(O)CO (stereo not given) | -6.35% | -16.1% | -0.32% | -23.1% | -10.4%
CCCn1c(=O)c2ccc(C(=O)NCC(C)C)cc2n2c(=O)n(CC(=O)Nc3cccc(F)c3)nc12 | 5.87% | 0% | 5.35% | 3.85% | 3.54%
Cc1cn(C[C@H](NC(=O)c2cccc(F)c2)C(=O)O)c(=O)[nH]c1=O | -8.97% | -12.1% | -5.27% | -24.1% | -26.9%
COC[C@H]1C[C@@H](NC(=O)Nc2ccc(F)cc2)[C@H](O)[C@@H]1O | -6.75% | -8.9% | -14.3% | -17.9% | -12.4%
Cc1ccc(Cn2nc3n(CC(C)C)c(=O)c4ccc(C(=O)NC(C)C)cc4n3c2=O)cc1 | 0.539% | 6.29% | -0.248% | -0.699% | 2.26%
CC(C)n1c(=O)c2ccc(C(=O)NC3CCCCC3)cc2n2c(=O)n(CC(=O)c3ccccc3)nc12 | 3.39% | 6.3% | 2.96% | -1.37% | 3.52%
CC(C)Cn1c(=O)c2ccccc2n2c(=O)n(Cc3ccccc3F)nc12 | -2% | 0.671% | 3.01% | -7.27% | -0.838%
Cc1ccc(C)c(N2C(=O)c3cc(-c4cccs4)nn3CC2(C)C(=O)NC2CCCCC2)c1 (stereo not given) | 2.14% | 0% | 4.91% | 5.36% | 2.6%
Cn1cc(Nc2ccc(Cl)cc2)c2nc(CN3CC[S+](=O)([O-])CC3)cn2c1=O | -18.9% | -14% | -5.02% | -16.3% | -21.7%
CC1(C(=O)N2CCc3ccccc32)CCCCC(=O)N1 (stereo not given) | -3.57% | -4.64% | -1.59% | -11% | -4.01%
COC(=O)c1ncn2c1C(=O)N(Cc1ccccc1C)C(C)(C(=O)NCc1ccccc1)C2 (stereo not given) | -8.88% | 0.725% | -7.57% | -10.9% | -8.56%
CC(C)NCC(O)COc1cccc2[nH]ccc12 (stereo not given) | 0.639% and -5.8% | 4.9% and 2.5% | 8.36% and 2.86% | -4.42% and -8.91% | 3.56% and 5.66%
Cc1ccc(Cn2nc3n(Cc4ccccc4)c(=O)c4ccc(C(=O)NCC(C)C)cc4n3c2=O)cc1 | 0.739% | 1.17% | 4.79% | -0.719% | -0.846%
Cc1ccc(Nc2ccn3c(=O)n(CC(=O)Nc4ccc(C)cc4C)nc3n2)cc1 | 11.3% | 0% | 6.46% | 1.13% | 2.15%
